Source: article PMC4336329 (PLoS ONE, 2015)
In all, about 310,000 compounds went through this assay and about 14,000 (4.5%) showed an effect of 50% or more. Effects have a minus sign here. The list shows a part of the results.
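Note: peak tail current of the secondary pulse compared with the same well before compound.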

Each molecule was assayed against human ether-à-go-go-related gene (hERG) potassium channel (human, UniProt Q12809) (assay: primary screen, population patch clamp on CHO cells stably expressing hERG).
Sequence of human ether-à-go-go-related gene (hERG) potassium channel (Q12809 whole entry, looked up): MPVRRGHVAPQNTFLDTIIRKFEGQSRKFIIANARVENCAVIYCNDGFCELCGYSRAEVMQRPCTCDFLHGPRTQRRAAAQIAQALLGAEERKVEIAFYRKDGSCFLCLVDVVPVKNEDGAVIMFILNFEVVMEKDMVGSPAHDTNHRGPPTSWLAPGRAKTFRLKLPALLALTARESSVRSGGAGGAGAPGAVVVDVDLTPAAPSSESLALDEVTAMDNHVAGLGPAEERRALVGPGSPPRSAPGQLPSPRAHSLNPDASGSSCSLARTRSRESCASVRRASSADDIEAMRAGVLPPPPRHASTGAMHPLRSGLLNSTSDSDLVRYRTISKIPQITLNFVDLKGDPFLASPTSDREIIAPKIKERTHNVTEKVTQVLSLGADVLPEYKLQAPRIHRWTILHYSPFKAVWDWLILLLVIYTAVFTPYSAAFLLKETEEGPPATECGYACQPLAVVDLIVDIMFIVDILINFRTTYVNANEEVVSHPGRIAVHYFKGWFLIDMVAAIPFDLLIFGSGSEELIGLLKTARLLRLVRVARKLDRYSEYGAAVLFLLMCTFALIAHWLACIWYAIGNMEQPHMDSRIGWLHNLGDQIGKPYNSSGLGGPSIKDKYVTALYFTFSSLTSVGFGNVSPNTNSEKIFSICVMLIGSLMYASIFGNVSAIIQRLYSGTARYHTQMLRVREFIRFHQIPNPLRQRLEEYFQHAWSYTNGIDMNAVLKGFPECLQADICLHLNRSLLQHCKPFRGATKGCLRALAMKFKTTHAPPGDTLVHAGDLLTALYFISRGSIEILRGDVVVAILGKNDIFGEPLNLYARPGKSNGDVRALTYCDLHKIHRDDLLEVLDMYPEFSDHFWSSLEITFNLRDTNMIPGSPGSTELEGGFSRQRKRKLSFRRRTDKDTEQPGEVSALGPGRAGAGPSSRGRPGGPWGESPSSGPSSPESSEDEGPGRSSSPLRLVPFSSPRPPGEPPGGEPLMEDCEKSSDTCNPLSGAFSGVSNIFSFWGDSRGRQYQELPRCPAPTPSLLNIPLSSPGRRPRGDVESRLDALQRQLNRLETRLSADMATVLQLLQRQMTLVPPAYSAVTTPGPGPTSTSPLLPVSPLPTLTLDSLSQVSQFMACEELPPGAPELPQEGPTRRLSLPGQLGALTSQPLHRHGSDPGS
In the case of O=C(Nc1ccc(C(=O)N2CCOCC2)cc1)c1cc(-c2cccnc2)nc2ccc(Br)cc12, the “hERG current change (%, negative = inhibition) at 10uM” value is reported as -0.666%. In the case of COCCn1c(Cc2cccn2C)nnc1SCC(=O)NCc1ccc2c(c1)OCO2, the “hERG current change (%, negative = inhibition) at 10uM” value is reported as 2.16%. For Cn1c(=S)c2[nH]c(SCCN3CCCC3)nc2n(C)c1=O, the “hERG current change (%, negative = inhibition) at 10uM” value was 10.5%. For COc1cc(OC)cc(C(=O)N2CCC(N3CCCCCC3)CC2)c1, the “hERG current change (%, negative = inhibition) at 10uM” value was -5.77%. For O=C(NCCN1C(=O)C2C3C=CC(C3)C2C1=O)NCc1ccccc1 (stereo not drawn), the “hERG current change (%, negative = inhibition) at 10uM” value was 13.8%. With COc1cc(NC(=O)CN(c2cc(C)cc(C)c2)S(=O)(=O)c2c(C)[nH]c(=O)[nH]c2=O)cc(OC)c1 the “hERG current change (%, negative = inhibition) at 10uM” value was -27.8%. With O=C(Cc1cccc(F)c1)Nc1ccc2c(c1)CCC2 the “hERG current change (%, negative = inhibition) at 10uM” value was 30.3%. For COc1ccc(-c2cc(C(=O)Nc3cc(Cl)ccc3OC)no2)cc1, the “hERG current change (%, negative = inhibition) at 10uM” value was 33.9%. With O=S(=O)(Nc1cccnc1Cl)c1ccc2c(c1)OCCO2 the “hERG current change (%, negative = inhibition) at 10uM” value was 15.4%. With CC(C)C(=O)Nc1ccccc1C(=O)OCC(=O)c1ccc2c(c1)OCCO2 the “hERG current change (%, negative = inhibition) at 10uM” value was -10.4%. With COc1ccc(C(=O)OC2CC3CCC(C2)[N+]3(C)[O-])cc1OC (stereo not drawn) the “hERG current change (%, negative = inhibition) at 10uM” value was 4.43%. C=CCN(c1ccccc1C(=O)O)S(=O)(=O)c1ccc(NC(=O)OC)cc1 was tested, and the “hERG current change (%, negative = inhibition) at 10uM” value was 4.39%. With Cc1ccc(C)c(N2CCN(C(=O)c3cccn4c(=O)c5sccc5nc34)CC2)c1 the “hERG current change (%, negative = inhibition) at 10uM” value was -44.1%. For CN=CC1=C(O)CC(C)(C)CC1=O, the “hERG current change (%, negative = inhibition) at 10uM” value was 11.5%. With Cc1ccc(N(C(=O)CCCC(=O)Nc2ccccn2)C(C(=O)NC2CCCC2)c2ccc(O)cc2)cc1C (stereo not drawn) the “hERG current change (%, negative = inhibition) at 10uM” value was -1.32%. CCOc1ccc(N=Nc2c(C)[nH]n(-c3ccccc3)c2=O)cc1 was tested, and the “hERG current change (%, negative = inhibition) at 10uM” value was 18.6%. In the case of O=C(COc1ccc2c(c1)CCC2)NCc1ccccc1, the “hERG current change (%, negative = inhibition) at 10uM” value is reported as 1.82%. In the case of Cc1ccc(-c2csc(NC(=O)CN3CCOCC3)n2)cc1, the “hERG current change (%, negative = inhibition) at 10uM” value is reported as -8.79%. In the case of O=[N+]([O-])c1ccc(N2CCN(S(=O)(=O)c3ccccc3)CC2)cc1NCc1cccnc1, the “hERG current change (%, negative = inhibition) at 10uM” value is reported as 1.8%. For NC(=O)NCCCC(NC(=O)c1ccc(C#CC2(O)CCCCC2)cc1)C(=O)O (stereo not drawn), the “hERG current change (%, negative = inhibition) at 10uM” value was 18.1%. In the case of O=c1c(Cc2c(F)cccc2Cl)c(O)ccn1Cc1ccc2c(c1)OCO2, the “hERG current change (%, negative = inhibition) at 10uM” value is reported as 3.67%. With COC(=O)CC1Sc2ccccc2NC1=O (stereo not drawn) the “hERG current change (%, negative = inhibition) at 10uM” value was 7.56%. For Cc1ccc(F)cc1NC(=O)c1cccc(N(C)C)c1, the “hERG current change (%, negative = inhibition) at 10uM” value was -4.45%. With O=C(N/N=C1/CCSC1)c1cc(Br)ccc1O the “hERG current change (%, negative = inhibition) at 10uM” value was -9.66%. With Cc1cc(C)c(OCC(=O)Nc2cc(C(=O)O)cc(C(=O)O)c2)cc1C the “hERG current change (%, negative = inhibition) at 10uM” value was 52.1%. Cc1cccc2c(=O)c(C(=O)NCCCN3CCOCC3)c[nH]c12 was tested, and the “hERG current change (%, negative = inhibition) at 10uM” value was -2.23%. With CCOC(=O)CC1C(=O)NCCN1C(=O)c1ccc(Cl)c(Cl)c1 (stereo not drawn) the “hERG current change (%, negative = inhibition) at 10uM” value was 20.5%. In the case of Cc1ccc(NC(=O)Cc2cc(C(=O)O)c3ccccc3n2)c(C)c1, the “hERG current change (%, negative = inhibition) at 10uM” value is reported as 26.5%. In the case of CCCc1ccc(C(=O)NNC(=O)c2ccc(Cl)cc2)cc1, the “hERG current change (%, negative = inhibition) at 10uM” value is reported as -6.9%. COc1ccc(CCNC(=O)COC(=O)Cc2ccc(OC)cc2)cc1 was tested, and the “hERG current change (%, negative = inhibition) at 10uM” value was 9.48%. For O=C(O)CN(c1ccccn1)S(=O)(=O)c1ccccc1, the “hERG current change (%, negative = inhibition) at 10uM” value was -8.38%. With COc1ccc(-n2c(SCC(N)=O)nc3nc4c(cc3c2=O)COC(C)(C)C4)cc1 the “hERG current change (%, negative = inhibition) at 10uM” value was 10.1%. With COc1ccc(N=Nc2c(O)[nH]c(=S)[nH]c2=O)cc1 the “hERG current change (%, negative = inhibition) at 10uM” value was 31.7%. For C/C(=N\O)C(C)(C)Nc1cccc(Br)c1, the “hERG current change (%, negative = inhibition) at 10uM” value was 17%. For O=C(C1COc2ccccc2O1)N1CCN(Cc2ccccc2)CC1 (stereo not drawn), the “hERG current change (%, negative = inhibition) at 10uM” value was -7.63%. For CCCCc1noc2c1/C(=N\O)CC(c1ccccc1)C2 (stereo not drawn), the “hERG current change (%, negative = inhibition) at 10uM” value was 7.26%. With O=C(Nc1ccc(-c2nc3ccccc3s2)c(O)c1)C1=COCCO1 the “hERG current change (%, negative = inhibition) at 10uM” value was -73.1%. CCS(=O)(=O)c1nc(S(=O)(=O)c2ccc(Cl)cc2)c(NCCCN2CCOCC2)s1 was tested, and the “hERG current change (%, negative = inhibition) at 10uM” value was -41%. With O=C(O)c1ccc(N2C(=O)CC(Cc3ccccc3)C2=O)cc1 (stereo not drawn) the “hERG current change (%, negative = inhibition) at 10uM” value was 9.69%. Cc1ccc(CN(C)C(=O)c2cccc(S(=O)(=O)N3CCCC3)c2)cc1 was tested, and the “hERG current change (%, negative = inhibition) at 10uM” value was -10.7%. In the case of O=C(c1ccccc1)N1CCN(c2ncnc3c2cnn3-c2ccccc2)CC1, the “hERG current change (%, negative = inhibition) at 10uM” value is reported as -18%. With CN(Cc1ccccc1)c1nc2c(c(=O)[nH]c(=O)n2C)n1Cc1ccccc1 the “hERG current change (%, negative = inhibition) at 10uM” value was -6.42%. CC(=O)c1cccc(NC(=O)COC(=O)C2=COCCO2)c1 was tested, and the “hERG current change (%, negative = inhibition) at 10uM” value was -1.99%. For CC(NC(=O)c1ccc2c(c1)OCO2)c1ccccc1 (stereo not drawn), the “hERG current change (%, negative = inhibition) at 10uM” value was 13%. In the case of COc1ccc(CCNC(=O)c2ccc(CNS(=O)(=O)c3ccc(C(C)(C)C)cc3)cc2)cc1OC, the “hERG current change (%, negative = inhibition) at 10uM” value is reported as 5.14%. In the case of Cc1ccc(C)c(S(=O)(=O)N2CCCN(C)CC2)c1, the “hERG current change (%, negative = inhibition) at 10uM” value is reported as -0.717%. In the case of O=C1CC[C@H](O)CCN1[C@H](CSc1ccc(Br)cc1)Cc1ccccc1, the “hERG current change (%, negative = inhibition) at 10uM” value is reported as -24.3%. For COc1ccc(O)c(-c2cc(-c3cccc(Br)c3)n[nH]2)c1, the “hERG current change (%, negative = inhibition) at 10uM” value was 8.25%. With COc1ccc([N+](=O)[O-])cc1N(CC(=O)O)S(C)(=O)=O the “hERG current change (%, negative = inhibition) at 10uM” value was 13.7%. O=C(COC(=O)Cc1ccc(Br)cc1)NC1CCCCC1 was tested, and the “hERG current change (%, negative = inhibition) at 10uM” value was 20.8%. With O=C(CCC(=O)c1ccc(F)cc1)Nc1cccc(C(F)(F)F)c1 the “hERG current change (%, negative = inhibition) at 10uM” value was 7.22%. For CC(CCc1ccccc1)NC(=O)CNC(=O)c1ccccc1Br (stereo not drawn), the “hERG current change (%, negative = inhibition) at 10uM” value was 11.4%. CS(=O)(=O)N1CCCC(C(=O)NCCN2CCC(Cc3ccccc3)CC2)C1 (stereo not drawn) was tested, and the “hERG current change (%, negative = inhibition) at 10uM” value was -28%. Cc1cccc(Cl)c1NC(=S)N1CCN(c2ccc([N+](=O)[O-])cn2)CC1 was tested, and the “hERG current change (%, negative = inhibition) at 10uM” value was -9.86%. CCOC(=O)N1CCc2c(sc3nc4n(c(=O)c23)N=C(c2ccc(OC)cc2)CS4)C1 was tested, and the “hERG current change (%, negative = inhibition) at 10uM” value was 10.9%. With CC1(C)CC(=O)C2=C(C1)N(CC1CCCO1)C(=O)C2(NC(=O)c1cccnc1)C(F)(F)F (stereo not drawn) the “hERG current change (%, negative = inhibition) at 10uM” value was 9.64%. With COc1ccc(S(=O)(=O)N2CCN(c3ccccc3)CC2)cc1C(=O)N1CCCC1 the “hERG current change (%, negative = inhibition) at 10uM” value was -7.86%.
